Experimental findings from ChEMBL document CHEMBL4888484, “Replenishing the malaria drug discovery pipeline: Screening and hit evaluation of the MMV Hit Generation Library 1 (HGL1) against asexual blood stage Plasmodium falciparum ,using a nano luciferase reporter read-out” (2022) are described below.

Hit rate of the full screen: of about 150,000 compounds, about 540 (0.36%) showed an effect of 50% or more. The list shows a part of the results.

The test system of this assay is Plasmodium falciparum. Briefly: Primary screen in NF54 nanoGlo assay, in single point, at 2uM, 72h; a lower Z score goes with more inhibition. The class given is functional, Erythrocyte. The following applies: timepoint 72 hour.
The % Inhibition is the drop in the measured response relative to a control, in per cent. With `CCC[C@H]1CN(C(=O)c2cccc(-c3ccco3)c2)C[C@@H]1N`, the “% Inhibition” value was -16% and the Z score is on record as 1.92.
On to `NC(=O)c1cccc(-c2noc([C@H]3CNCC34CCCCC4)n2)c1`, for which the “% Inhibition” value is on record as -11% and the Z score is 1.65.
With `Cc1cc2n(n1)CCN(C(=O)N[C@H](c1cccs1)C1CCCCC1)C2`, the “% Inhibition” value is -16% and the Z score turned out to be 2.07.
Taken in the same sequence, the figures for `CCC(=O)[C@@H]1CCCCN1C(=O)c1c[nH]c(C#N)c1` were -6% and 0.86.
With `CCN(C)c1ccccc1NC(=O)c1c[nH]nn1`, the “% Inhibition” value was -8% and the Z score stood at 1.18.
As to `O=C(N[C@@H]1c2ccccc2OC[C@@H]1CO)[C@H](O)c1ccccc1`, the “% Inhibition” value is -2% and the Z score came to 0.41.
On to `CC(C)C[C@H](NC(=O)c1ccc(Cl)cc1Cl)C(=O)N1CCN(Cc2ccc3c(c2)OCO3)CC1`, for which the “% Inhibition” value was -5% and the Z score is reported as 1.07.
For `Cc1ccc(OCc2c(C(=O)N3CCc4ccccc4C3)c(=O)cc(C)n2Cc2ccccn2)cc1`, in that order: -16% and 3.02.
In the case of `Cc1noc(CCNC(=O)C[C@@H]2N=C(O)N(c3cccc4ccccc34)C2=O)n1`, the “% Inhibition” value was found to be 6% and the Z score was -0.72.
Taken in the same sequence, the figures for `COC(=O)[C@@H]1CN(C(=O)c2ccc(OC)c(S(=O)(=O)N3CCCCCC3)c2)C[C@H]1C` were 4% and -0.4.
Taken in the same sequence, the figures for `CN=C(NCc1ccc(Cl)cc1)NC1CC1` were -12% and 1.48.
For `Cc1nc2n(c1C(=O)N(C)C)CCN(C(=O)[C@@H]1COc3ccccc3C1)C2`, the “% Inhibition” value is on record as -18% and the Z score is on record as 2.35.
Regarding `CC[C@H](C)Oc1cc(-c2nc(COC)no2)ccn1`, the “% Inhibition” value is listed as -3% and the Z score amounted to 0.57.
For `Cc1cc(Cl)ccc1OCC(=O)NC(C)(C)CO`, in that order: 8% and -1.58.
With `Cc1ccc(-c2nc(C#N)c(S(=O)(=O)Cc3ccc(Cl)cc3)o2)cc1`, the “% Inhibition” value came to 5% and the Z score is recorded as -0.73.
For `COc1ccc(NC(=O)Cn2c(C)cc3nc4n(c(=O)c32)CCCC4)cc1`, the “% Inhibition” value is on record as -11% and the Z score is 1.22.
Taken in the same sequence, the figures for `Cc1cc(N(C)C)cc(C)c1CC(=O)NCCc1cncn1C` were -7% and 1.09.
Taken in the same sequence, the figures for `O=C1NC(=O)[C@@H]2CN(S(=O)(=O)c3ccc(C4CC4)cc3)C[C@H]12` were 1% and -0.15.
As to `C[C@H](O)CN(C(=O)Nc1cccnc1)C1CCCCC1`, the “% Inhibition” value is 13% and the Z score is listed as -1.7.
Turning to `Cc1nc(-c2ccc(N3CCCC3)nc2)sc1C(=O)O`, the “% Inhibition” value was determined as 0% and the Z score is on record as -0.04.
For `O=C(NCc1noc(Cc2cccs2)n1)[C@H]1CCC[C@H](O)C1`, in that order: -6% and 0.72.
As to `CC(C)(C)C1CC(C(=O)Nc2cccc3c2C(=O)NC3)C1` (stereo not drawn), the “% Inhibition” value is recorded as 0% and the Z score is recorded as 0.05.
As for `Clc1ccccc1COc1ccccc1CNCc1ccc2c(c1)OCO2`, the “% Inhibition” value is -12% and the Z score is reported as 1.45.
Turning to `CCc1nnc(CNc2ccc(Cl)c(OC(F)F)c2)o1`, the “% Inhibition” value was -2% and the Z score amounted to 0.21.
Take `C[C@H]1C(=O)N(c2ccc(Cl)cc2Cl)CCN1C(=O)Nc1cccc(Cl)c1`: the “% Inhibition” value was -3% and the Z score worked out at 0.37.
Regarding `Cc1nnc(-c2cccc(NC(=O)[C@@H]3CCCCN3C(=O)C3CCOCC3)c2)s1`, the “% Inhibition” value is reported as -14% and the Z score is reported as 1.61.
Regarding `O=C1CCCN1Cc1ncnn1-c1ccc2c(c1)OCCO2`, the “% Inhibition” value is given as -5% and the Z score is 0.75.
With `Cc1noc(C)c1NC(=O)N1CCS(=O)(=O)C(C)(C)C1`, the “% Inhibition” value was determined as 14% and the Z score is listed as -1.61.
With `Cc1cc(CS(=O)(=O)CC(=O)N2c3ccccc3C[C@@H]2C)on1`, the “% Inhibition” value is recorded as 0% and the Z score was -0.02.
`Cc1cc(NC(=O)Nc2cccnn2)ccc1O`: the “% Inhibition” value is reported as -7% and the Z score turned out to be 1.19.
For `Cc1cccc(Cn2c(C(=O)NCc3ccco3)cc3cc(NC(=O)CCc4ccccc4)ccc32)c1`, in that order: -3% and 0.41.
Turning to `Cc1cc(C(=O)NC2CCCC2)cs1`, the “% Inhibition” value is recorded as 2% and the Z score was -0.33.
On to `Cc1ocnc1C(=O)N1c2ccccc2C[C@@H]1C`, for which the “% Inhibition” value is listed as 17% and the Z score is on record as -2.17.
`N#Cc1cccc(OC2CCN(C(=O)c3ccc4c(c3)CCC=C4)CC2)c1`: the “% Inhibition” value was -1% and the Z score came out at 0.2.
On to `Cc1oc(C(C)C)nc1C(=O)NC[C@H]1CCCN(CC(F)(F)F)C1`, for which the “% Inhibition” value is -5% and the Z score came to 0.59.
As to `CNC(=O)Cc1noc(C[C@H](C)C(=O)c2ccc(Cl)cc2)n1`, the “% Inhibition” value was -16% and the Z score came out at 1.59.
With `O=C1CN(C(=O)CN2CCN(Cc3ccc4c(c3)CCO4)CC2)c2ccccc2N1`, the “% Inhibition” value is given as -3% and the Z score turned out to be 0.52.
For the molecule `Cc1noc(CNC(=O)C2CCN(C(=O)c3ccc4nsnc4c3)CC2)n1`, the “% Inhibition” value is reported as -15% and the Z score is 2.25.
Taken in the same sequence, the figures for `CC1CCC(C)N1C(C)C(=O)NCC(O)c1ccncc1` (stereo not drawn) were 6% and -0.51.
Regarding `CC#CC(=O)NCC(C)(C)Oc1ccccc1`, the “% Inhibition” value was -9% and the Z score is on record as 1.56.
For `COCC(O)CN(C)S(=O)(=O)N1CC(C)CC(C)C1` (stereo not drawn), the “% Inhibition” value is given as -9% and the Z score was 1.12.
Take `O=C(NCCOCCn1ccnc1)c1ccsc1`: the “% Inhibition” value is recorded as -6% and the Z score is 0.64.
`Cc1ccc(CNC(=O)N2CCc3[nH]c(-c4ccccc4)nc3C2)cc1`: the “% Inhibition” value is -11% and the Z score was found to be 1.61.
For `CC(C)(C)OC(=O)N1Cc2sc(N)nc2C1(C)C`, in that order: -20% and 3.25.
For the molecule `CC(=O)N1CCC[C@H](c2noc(-c3cnc4ccccc4n3)n2)C1`, the “% Inhibition” value is listed as -18% and the Z score amounted to 2.61.
Turning to `Cc1ccc(-n2nc(N3CCCN(C(=O)c4ccc(F)c(Cl)c4)CC3)ccc2=O)cc1`, the “% Inhibition” value is given as 5% and the Z score is on record as -0.54.
Take `CC1CCN(S(=O)(=O)c2ccc(-c3noc(CN4C(=O)COc5ccccc54)n3)cc2)CC1`: the “% Inhibition” value was 1% and the Z score is -0.1.
Regarding `O=C(CCn1cc(Br)ccc1=O)N1CCC[C@H](O)C1`, the “% Inhibition” value is recorded as -5% and the Z score is 0.69.
`Cc1ncoc1C(=O)N1CCN(C(c2ccccc2)c2ccccc2)CC1`: the “% Inhibition” value was -10% and the Z score is recorded as 1.32.
Consider `COc1cc(-c2nnc3n2CCOC3)ccc1OCCC(C)C`, for which the “% Inhibition” value came out at 12% and the Z score was -1.6.
Taken in the same sequence, the figures for `c1ccc2c(c1)CN(C1CCOCC1)CCO2` were 3% and -0.38.
Turning to `Cc1ccc(C)c(NS(=O)(=O)c2cc(C(=O)N3CCc4ccccc4C3)ccc2Cl)c1`, the “% Inhibition” value is given as 0% and the Z score was -0.04.
Taken in the same sequence, the figures for `O=C(NCc1ccc(C2CC2)nc1)c1ccncc1` were -16% and 1.82.
For the molecule `Cc1occc1S(=O)(=O)Cc1ncc(-c2ccccc2)o1`, the “% Inhibition” value came to 19% and the Z score was -2.19.
